From the supplement of paper PMC11417369 come the findings set out here.

Some of the results follow.

This test concerns PfAP2-HC AP2 domain (GST-tagged). Briefly: gcPBM binding intensity (ln(normalized median fluorescence intensity)); higher = stronger DNA binding. The method, boiled down: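 An Agilent 4 × 180k array of primer-extended double-stranded 36-bp intergenic genomic probes, with negative controls, was incubated for 1 h with GST-tagged P. falciparum DNA-binding domains expressed in E. coli. Alexa488 anti-GST antibody detected bound protein, scanned at 488 nm. Binding intensity is the highest Masliner-normalised natural-log median intensity across replicate spots of either probe orientation.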
With “GTATTTAGATGATTAACACACATATGTGTATTAATA [CACACA_site6733]”, the “gcPBM binding intensity (ln)” value turned out to be 9.79.

As for “ATATATATTATTGAATGTACATAATTATTTAATAGT [XGTACX_site4971]”, the “gcPBM binding intensity (ln)” value worked out at 9.75. Regarding “ATATATTCACGTTAATGTACACATAATAAATTATAT [XGTACX_site5481]”, the “gcPBM binding intensity (ln)” value was 9.66. For “AATTATATTGGTTGTAGTACTAAAAGTAAGTTAATG [XGTACX_site33]”, the “gcPBM binding intensity (ln)” value worked out at 9.87. In the case of “TATTCACTGATATGTTGTACATAAAAAAAATTAAAT [XGTACX_site6128]” it was 9.47; in that of “CACGCACGCACATACACACACATACACATATAAATA [CACACA_site6907]”, 10.1; in that of “ATGTTGTTCATAAATATATTATTTTTAAATGTACAA [GTGCAC_negctrl_site507]”, 9.43. For “AAAAAAAAAAAAAAAAGTACATATATTATATATATA [XGTACX_site2983]” the value was 9.45.

Turning to “TGAAAAAAGAAAAATACACACATATAATATAATATA [CACACA_site2255]”, the “gcPBM binding intensity (ln)” value is 9.8. Turning to “TTTTTTATATTGATATTTATTAAATATGAAATGTTA [GTGCAC_negctrl_site405]”, the “gcPBM binding intensity (ln)” value amounted to 9.29. For “AATAAAATATAAGGGGGTACGGAGAAAGGATACTAT [XGTACX_site7733]” the value was 9.99; for “TTATATAAGATATTTCGTACACATTCAAAAATTATG [XGTACX_site7375]”, 9.51; for “TGTCTTTATATATATTTATTTTTTAGTATTACATAA [CACACA_negctrl_site21]”, 9.76. For “ATTTTCATATTTTTATGTACATATTATAAGAATATA [XGTACX_site3691]”, the “gcPBM binding intensity (ln)” value turned out to be 9.63.

Consider “TATCTTTTTTTTAATACACACAAATTTATGAAAGTA [CACACA_site7879]”, for which the “gcPBM binding intensity (ln)” value is 9.38.

As for “ATGGAATATTTCATGATTTTTTTAATTTTTTTATTG [XGTACX_negctrl_site55]”, the “gcPBM binding intensity (ln)” value came to 9.5. Regarding “ACAAAACATATATTCTGTACATATATAATGGTGACT [XGTACX_site6796]”, the “gcPBM binding intensity (ln)” value is 9.77. For “TTTATATCTTATTATAGGAAAATGAATATTTTCTCT [TGCATGCA_negctrl_site478]” the value was 9.31; for “AAGAAAATATAAATATGTACTTAATAATTTATTTAT [XGTACX_site8100]”, 9.47. Consider “AAAAAAGAGGGATACACACAAACATATATATATATA [CACACA_site2243]”, for which the “gcPBM binding intensity (ln)” value is 9.94. For “AAAATAAAAAGAAATTGTACGTATAATAATATATTT [XGTACX_site7593]”, the “gcPBM binding intensity (ln)” value amounted to 9.84. For “TTTATTTTAAAATTTACACACAAAAGGATTTATAGA [CACACA_site2338]” the value was 9.5. Turning to “TATATTAATTAACAGTGTACAAAAAAAAATAAAAAA [XGTACX_site3702]”, the “gcPBM binding intensity (ln)” value turned out to be 9.84. In the case of “TATTAAAATAACATACGTACATAAGTATATAAAAAA [XGTACX_site1769]”, the “gcPBM binding intensity (ln)” value was determined as 9.72. Consider “AGGATACACGGACACACACACATATATATATATATA [CACACA_site4654]”, for which the “gcPBM binding intensity (ln)” value came out at 10.6. On to “TTTATTCCAGTATTCACACACGAATAACCACATAAC [CACACA_site5104]”, for which the “gcPBM binding intensity (ln)” value came out at 9.99.

In the case of “ATAATTCTTTATTATAGTACACAAACTTTCAAAACA [XGTACX_site3597]”, the “gcPBM binding intensity (ln)” value was found to be 9.42. On to “CTATACATATTATATAGTACTTTATTATTATGACTA [XGTACX_site1382]”, for which the “gcPBM binding intensity (ln)” value is 9.6. Consider “TATATAAGAGGAAAAAGTACAGAAAAACAAAGAGAA [XGTACX_site2926]”, for which the “gcPBM binding intensity (ln)” value was determined as 9.81. For “TGTATTTATAGCAATACACACATAACAATAAATATA [CACACA_site3328]” the value was 9.79. As for GTGGTTATATATTAAGTGCATATTATAATTTTAAAC, the “gcPBM binding intensity (ln)” value was 9.52.

Turning to “AATATCTAAAATGTGTGTACATAATATTTTTAATAT [XGTACX_site3831]”, the “gcPBM binding intensity (ln)” value amounted to 9.56. Regarding “ATAGATAAAAAATTATTTATTTAGAATTTTTATGTA [CACACA_negctrl_site400]”, the “gcPBM binding intensity (ln)” value is 9.52.

For the sequence “TGTATAAATAAATGCGTACACACTAATAAAAAAAAA [CACACA_site858]”, the “gcPBM binding intensity (ln)” value was found to be 9.91. Consider “TTATGTAAATAATTTTGTACTTAAATTATTATATAA [XGTACX_site1491]”, for which the “gcPBM binding intensity (ln)” value worked out at 9.42.

As to “CAACTTTTTGAAAATTGTACATGACATATATATATA [XGTACX_site260]”, the “gcPBM binding intensity (ln)” value came to 9.36. For “AAAAAAAATATGATGAGTACACAATAATACATGCAA [XGTACX_site6999]”, the “gcPBM binding intensity (ln)” value was determined as 9.93. Consider “AGAATTACTTAAAAAAGTACATAAAATTATTTAAAA [XGTACX_site2205]”, for which the “gcPBM binding intensity (ln)” value was determined as 9.55. For “AATATAAAAATGTTTACACACACACCCAAATATATT [CACACA_site2511]”, the “gcPBM binding intensity (ln)” value was 10.2. Turning to “ATTACATTTTTAATGCGTACTAAAAATGTATATAAG [XGTACX_site6384]”, the “gcPBM binding intensity (ln)” value came to 9.53.

As to “AATACACCCAGACACACACACAAAAAAAAAAAAAAA [CACACA_site513]”, the “gcPBM binding intensity (ln)” value is 10.1.

Consider “ATATATATATTAAATACACACATTTTTGATTAGGTT [CACACA_site3119]”, for which the “gcPBM binding intensity (ln)” value was found to be 9.76. As for “AAAAGAGAAATGGGCACACACACACCGATTATATAT [CACACA_site4942]”, the “gcPBM binding intensity (ln)” value stood at 11. On to “TTTGAATCCTTATATACACACATTATGTAATATTAT [CACACA_site561]”, for which the “gcPBM binding intensity (ln)” value worked out at 9.88.

In the case of “TTATTATCTCTTGTCATTATTATATACTAAGAAGTA [CACACA_negctrl_site410]”, the “gcPBM binding intensity (ln)” value turned out to be 9.52. In the case of “AATATGAAATATATTACACACATTTATATGTTGAAA [CACACA_site1427]”, the “gcPBM binding intensity (ln)” value was determined as 9.75. For “AAAGATTTAGAAAATGAACACACGAGCACCCACCGA [CACACA_site1017]” the value was 10.5; for “GAAAGAGAGATATATACACACATATTTATATTTTTA [CACACA_site7057]”, 9.79; for “ATATTAAGAATGTATACATGCATATATATATAGTAC [TGCATGCA_site219]”, 9.88. In the case of “ATTTTAATAAACACTTACATGTTTTCCAAATTGTAT [CACACA_negctrl_site1807]” it was 9.56; in that of “TTCGTTAAAAATAAATGTACATAAATAAACCTTATT [XGTACX_site621]”, 9.49.

As for “TATTAATAAATATGTTTACACACGAAAATACATTTT [CACACA_site1012]”, the “gcPBM binding intensity (ln)” value turned out to be 9.73.

For “TCTAATTATCACATTGCACACACATTTCCTTTTACA [CACACA_site9140]”, the “gcPBM binding intensity (ln)” value is 10.1. For “TTATACTGTATAGTCGCACACAAAAATATAAAATAT [CACACA_site3869]”, the “gcPBM binding intensity (ln)” value stood at 9.98. In the case of “TAATTAATTTATGTAACACACATTGTTGATTCAATA [CACACA_site1098]”, the “gcPBM binding intensity (ln)” value came to 9.65.

Turning to AAAAGTCTCTTTTTAGTGCACATTTTATTTAAATAT, the “gcPBM binding intensity (ln)” value stood at 9.58.

“CAGATAAGGTGAAGCTGTACAAAAATGTTTTATAAC [XGTACX_site6783]”: the “gcPBM binding intensity (ln)” value was determined as 9.81.
